Measurements from PubChem BioAssay (NCI).
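Five compound concentrations were applied to cells in 96-well plates for 48 hours; endpoints were derived by simple linear interpolation of the resulting dose-response curve. Abbreviation: GI50, concentration required for 50% inhibition of growth.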 For part of its entries the source gives two or more results. This list holds those alone. The source may hold further records. For some assays here: The tests behind the records often covered other concentration ranges, not given here; a value can be the end of its range. For some assays here: The values listed for one entry are repeated measurements in other runs, samples, wells, individuals or studies. Marks in square brackets tell the records apart. A, B and so on number the origins entry by entry.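 TGI: concentration producing complete growth inhibition.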

Legend:
Test in all cases: DTP human tumour cell line panel, 48 h
UO-31 renal = system: UO-31 renal
NCI/ADR-RES ovarian = system: NCI/ADR-RES ovarian
MOLT-4 leukemia = system: MOLT-4 leukemia
SW-620 colon = system: SW-620 colon
DMS 273 small cell lung = system: DMS 273 small cell lung
MCF7 breast = system: MCF7 breast
A549 NSCLC = system: A549 NSCLC
786-0 renal = system: 786-0 renal
SR leukemia = system: SR leukemia
CCRF-CEM leukemia = system: CCRF-CEM leukemia
K-562 leukemia = system: K-562 leukemia
KM12 colon = system: KM12 colon
SF-539 CNS = system: SF-539 CNS
ACHN renal = system: ACHN renal
MALME-3M melanoma = system: MALME-3M melanoma
OVCAR-8 ovarian = system: OVCAR-8 ovarian
SK-OV-3 ovarian = system: SK-OV-3 ovarian
SK-MEL-28 melanoma = system: SK-MEL-28 melanoma

## C(=N/NC1=NCCN1)/c1c2ccccc2c(/C=N\NC2=NCCN2)c2ccccc12
UO-31 renal
  TGI: 5.33 µM [mean of 3 tests] and 68.8 µM [mean of 4 tests] and 145 µM [mean of 5 tests]
NCI/ADR-RES ovarian
  TGI: 9.19 µM and 169 µM
MOLT-4 leukemia
  TGI: 57.8 nM, 330 nM, 1.08 µM
SW-620 colon
  TGI: 2.03 µM [mean of 2 tests] and 1.06 µM [mean of 4 tests] and 13.2 µM [mean of 7 tests]
DMS 273 small cell lung
  TGI: 841 nM and 11 µM

## Nc1nc(Cl)nc2c1ncn2[C@@H]1O[C@H](COS(N)(=O)=O)[C@@H](O)[C@H]1O
MCF7 breast
  TGI: 162 nM and 11.5 µM
SW-620 colon
  TGI: 196 nM and 10.2 µM

## CCN(CC)CCC(=O)O[C@H]1CC[C@H](CC(C)[C@H]2CC(=O)C(C)C=C(C)[C@H](OC(=O)CCN(CC)CC)C(OC)C(=O)[C@@H](C)CC(C)/C=C/C=C/C=C(C)C(OC)CC3CC[C@H](C)[C@](O)(O3)C(=O)C(=O)N3CCCCC3C(=O)O2)CC1OC (stereo partly drawn)
A549 NSCLC
  GI50: 145 nM and 4.85 nM
786-0 renal
  GI50: 209 nM and 14.5 nM
SR leukemia
  GI50: 51.1 nM and 1.07 µM
CCRF-CEM leukemia
  GI50: 0.67 nM and 1.11 µM
K-562 leukemia
  GI50: 1.25 µM [1 test] and 45.2 nM [mean of 8 tests]
NCI/ADR-RES ovarian
  GI50: 39 nM and 1.24 µM
KM12 colon
  GI50: 34.1 nM and 1.72 µM
MCF7 breast
  GI50: 76.8 nM and 1.08 µM
SF-539 CNS
  GI50: 208 nM and 11.6 nM
ACHN renal
  GI50: 97.7 nM and 1.05 µM
MALME-3M melanoma
  TGI: 77.1 nM and 1.44 µM

## COc1cc2c3cc1Oc1c(OC)c(OC)cc4c1C(Cc1ccc(cc1)Oc1cc(ccc1O)CC3N(C)CC2)N(C)CC4 (stereo not drawn)
K-562 leukemia
  TGI: > 100 µM [sample A] and 5.01 µM [sample B]
OVCAR-8 ovarian
  GI50: > 100 µM [sample A, 1 test] and 9.41 µM [sample B, 1 test]

## O=C1C=C(OCCCl)C(=O)c2c(O)ccc(O)c21
SK-OV-3 ovarian
  TGI: 3.31 µM and 48.9 µM
SK-MEL-28 melanoma
  TGI: 316 nM and 3.97 µM
NCI/ADR-RES ovarian
  TGI: 7.26 µM and 74.4 µM
